Source: the antibiotic and cytotoxicity screens of Wong et al. (2023)
The list shows a part of the results.

Tested on: HSkMC (human skeletal muscle cells)
Test: cytotoxicity call (relative viability < 0.9)
Details: 10 µM

Compound	cytotoxicity call
CC(C)(Oc1ccc(CCNC(=O)c2ccc(Cl)cc2)cc1)C(=O)O	inactive
C[C@H](CO)N1C[C@H](C)[C@@H](CN(C)Cc2ccc(-c3ccccc3)cc2)Oc2ccc(NC(=O)NC3CCCCC3)cc2C1=O	inactive
Cc1ccc(S(=O)(=O)N(C)C[C@@H]2Oc3c(NS(=O)(=O)c4ccc(F)cc4)cccc3C(=O)N([C@H](C)CO)C[C@H]2C)cc1	inactive
C[C@H](CO)N1C[C@H](C)[C@H](CN(C)C(=O)Nc2ccc3c(c2)OCO3)Oc2ccc(NC(=O)c3ccncc3)cc2CC1=O	inactive
COc1ccc(NC(=O)N(C)C[C@@H]2Oc3ccc(NC(=O)C4CC4)cc3CC(=O)N([C@@H](C)CO)C[C@H]2C)cc1	inactive
C[C@H]1CN([C@@H](C)CO)C(=O)Cc2cc(NC(=O)Nc3ccc(C(F)(F)F)cc3)ccc2O[C@@H]1CN(C)Cc1ccc2c(c1)OCO2	inactive
C[C@H](CO)N1C[C@H](C)[C@@H](CN(C)C(=O)Nc2ccc(C(F)(F)F)cc2)Oc2ccc(NC(=O)NC3CCCCC3)cc2C1=O	inactive
C[C@@H]1CN([C@@H](C)CO)C(=O)c2cc(NC(=O)c3ccncc3)ccc2O[C@@H](C)CCCCO[C@@H]1CN(C)Cc1ccc(C(F)(F)F)cc1	inactive
CC(C)NC(=O)N[C@H]1C=C[C@H](CC(=O)NCCN2CCCC2)O[C@@H]1CO	inactive
C[C@H]1CN([C@@H](C)CO)S(=O)(=O)c2ccc(C#CC3CC3)cc2O[C@H]1CN(C)C(=O)Cc1ccncc1	inactive
C[C@@H]1CN([C@@H](C)CO)C(=O)c2cc(NC(=O)Nc3ccccc3)ccc2O[C@@H](C)CCCCO[C@H]1CN(C)S(=O)(=O)c1cccs1	inactive
C[C@@H]1CCCCO[C@@H](CN(C)C(=O)Nc2ccc3c(c2)OCO3)[C@H](C)CN([C@H](C)CO)C(=O)c2cc(NS(=O)(=O)c3ccc(F)cc3)ccc2O1	inactive
C[C@H]1CCCCO[C@H](CN(C)Cc2ccc(Cl)c(Cl)c2)[C@@H](C)CN([C@@H](C)CO)C(=O)c2cc(NS(=O)(=O)c3ccccc3)ccc2O1	inactive
CC(C)NC(=O)N(C)C[C@@H]1Oc2ccc(NC(=O)CCCN(C)C)cc2CC(=O)N([C@@H](C)CO)C[C@H]1C	inactive
C[C@H]1CN([C@@H](C)CO)C(=O)CCCn2cc(nn2)CO[C@H]1CN(C)C(=O)Nc1ccc(C(C)(C)C)cc1	inactive
CC(C)NC(=O)Nc1ccc2c(c1)CC(=O)N([C@@H](C)CO)C[C@@H](C)[C@@H](CN(C)S(=O)(=O)c1cccs1)O2	inactive

Compound	cytotoxicity call
C[C@@H]1CN([C@@H](C)CO)C(=O)c2cc(C#CCN(C)C)cnc2O[C@H]1CN(C)C(=O)CN1CCOCC1	inactive
COc1ccccc1NC(=O)N(C)C[C@H]1Oc2ncc(C#CCN(C)C)cc2C(=O)N([C@@H](C)CO)C[C@@H]1C	inactive
C[C@H]1CN([C@@H](C)CO)C(=O)Cc2cc(NC(=O)Nc3cccc4ccccc34)ccc2O[C@@H]1CN(C)Cc1ccc(C(=O)O)cc1	inactive
COc1ccc(S(=O)(=O)Nc2ccc3c(c2)C(=O)N([C@H](C)CO)C[C@@H](C)[C@@H](CN(C)Cc2ccc(-c4ccccc4)cc2)O3)cc1	active
COc1ccc(S(=O)(=O)Nc2ccc3c(c2)C(=O)N([C@@H](C)CO)C[C@@H](C)[C@H](CN(C)Cc2ccccc2)OCCCC[C@H](C)O3)cc1	inactive
Cn1c(=O)c2c(nc(N3CCOCC3)n2CCN)n(C)c1=O	inactive
C[C@H](CO)N1C[C@H](C)[C@H](CN(C)C(=O)Nc2ccccc2)Oc2c(NS(=O)(=O)c3cn(C)cn3)cccc2C1=O	inactive
NCC[C@H]1CC[C@@H](NC(=O)Nc2ccc(F)cc2)[C@H](CO)O1	inactive
Cl.Clc1ccc2nsnc2c1NC1=NCCN1	inactive
NCC1CCOCC1	inactive
C[C@@H]1CCCCO[C@@H](CN(C)C(=O)C2CCCCC2)[C@H](C)CN([C@@H](C)CO)C(=O)c2cc(NC(=O)Nc3ccc(F)cc3)ccc2O1	inactive
Cn1c(=O)c2cc(S(=O)(=O)NCCC(=O)NC3CCCC3)ccc2n(C)c1=O	inactive
COc1cccc(C#Cc2ccc3c(c2)O[C@@H](CN(C)C(=O)CN2CCOCC2)[C@H](C)CN([C@H](C)CO)S3(=O)=O)c1	inactive
Nc1ccc2c(c1)OCO2	inactive
COc1ccc(S(=O)(=O)N(C)C[C@@H]2Oc3ccc(NS(=O)(=O)c4ccccc4)cc3CC(=O)N([C@H](C)CO)C[C@@H]2C)cc1	inactive
